In PMC12136788:
Some of the results follow.

T1: UNK ZnF1-3 (human, UniProt Q9C0B0 31-174)
T1 sequence: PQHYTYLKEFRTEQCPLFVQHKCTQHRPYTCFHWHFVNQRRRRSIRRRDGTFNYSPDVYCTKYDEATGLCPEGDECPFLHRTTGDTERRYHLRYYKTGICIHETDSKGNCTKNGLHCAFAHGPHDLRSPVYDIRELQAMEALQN

B1: chr2:217002811:217002812:+_ENSG00000079246_ENST00000392132|hu_hu|FALSE|FALSE (ssRNA)
RNA: GGGAGUUCUACAGUCCGACGAUCCAAGGAUGAAAACAUGUAUUGCCGCAAGUCUUCCAUGAAAGGCAGCUGCACAUACACUAAACACUCAUAGUUAUGCUUGAUAUGAGGAAAAGCCACGCCGACUUGAGGAUUAGCUCUUUUCAACAGAGGAUUGAGCAUCA
B2: chr8:117878989:117878990:-_ENSG00000164754_ENST00000297338|hu_hu|hu_hu_hu_mus_True|58_98 (ssRNA)
RNA: GGGAGUUCUACAGUCCGACGAUCCCAGAGGCCCUCGUUUACUGAGAACAAAAUGUGCGUAGAACAUUUUUCUUAUUGGCUAUGAAAUAAGAAGAAACCUGGAUCUCGGCGGGGAGCCGGGAGGGGUGGGUGGCCCGGGGAGGGCAACAGAGGAUUGAGCAUCA
B3: chr4:25749455:25749456:-_ENSG00000091490_ENST00000264868|hu_hu|hu_hu_hu_mus_False|1_18 (ssRNA)
RNA: GGGAGUUCUACAGUCCGACGAUCGCACUAUGACCUCUAGAAAAAUCCACAGGGGGAAAAAAUGUAAACCAAUGUACAAUGUUAUCGCCUUCCCUGUGUGUGGAGUGUUUGUCUCAAUAUUUCAAGGAGCUGCUGGACUGCUAGCAACAGAGGAUUGAGCAUCA
B4: chr11:121174221:121174222:+_ENSG00000109929_ENST00000392789|hu_hu|FALSE|FALSE (ssRNA)
RNA: GGGAGUUCUACAGUCCGACGAUCUGUUGCACAGAAGAAAUAAAGGAUGUAAGCACCAACAUUUGUUACAAUCAGAAGACUAAUAGCUUGUCGGAAGAUGUCAUCUUCUGGCCAUGUGGCUGGAUACACGUAUGGUGUAAAAAACAACAGAGGAUUGAGCAUCA
B5: chr16:94690093:94690094:+_ENSMUSG00000040785_ENSMUST00000117648|mus_hu|mus_mus_mus_hu_True|8_28 (ssRNA)
RNA: GGGAGUUCUACAGUCCGACGAUCGGGCUGGGAUGACGGACACACAGCCUCGAUUCCAGGGGGAAAAAGUCUUAGUCGAUACUAAUUAAAAAGUGUUAAUGAUUUUUAUUACCAAAAUUACAUCUAUUUGAAUCAUAAAGCAAACAACAGAGGAUUGAGCAUCA
B6: 174012945_174013065_346_3pUTR_ENSMUSG00000026553_ENSMUST00000135192|mouse|control|control (ssRNA)
RNA: GGGAGUUCUACAGUCCGACGAUCUCUUCGUCUCGAAUUUGGUUAGCAUCCUUCAGGCCUCGGGCUCCUAGGUCAGGUUAGCGGGUCCCGCCGCUCCCGGUGGCACUCCCAAGGCUUCCACGUCAGCUACUCCCGGGUCGCGGCCAACAGAGGAUUGAGCAUCA

Molecular target: T1, UNK ZnF1-3
Assay: nsRBNS (natural sequence RNA bind-n-seq); RBNS binding buffer (assumed for nsRBNS): 25 mM Tris pH 7.5, 150 mM KCl, 3 mM MgCl2, 0.01% Triton X-100, 500 ug/ml BSA, 20 U/ml SUPERase-In, 4 C; UNK is unkempt and MSI1 is Musashi-1; names of the RNAs are library labels; protein concentration not given here; high values mean tight binding

Row | Binder | binding signal [enrichment R]
1 | B1 | 0.458
2 | B2 | 1.67
3 | B3 | 1.09
4 | B4 | 1.07
5 | B5 | 1.02
6 | B6 | 0.79
